Data taken from a collection of fitness landscapes (doi:10.1126/science.1257360).
Some of the results follow.

B1: PhoQ; a variant is named by its letters at X, in order, P23837 (parent)
chain: MKKLLRLFFPLSLRVRFLLATAAVVLVLSLAYGMVALIGYSVSFDKTTFRLLRGESNLFYTLAKWENNKLHVELPENIDKQSPTMTLIYDENGQLLWAQRDVPWLMKMIQPDWLKSNGFHEIEADVNDTSLLLSGDHSIQQQLQEVREDDDDAEMTHSVAVNVYPATSRMPKLTIVVVDTIPVELKSSYMVWSWFIYVLSANLLLVIPLLWVAAWWSLRPIEALAKEVRELEEHNRELLNPATTRELTSLVRNLNRLLKSERERYDKYRTTLTDLTHSLKTPLXXLQXXLRSLRSEKMSVSDAEPVMLEQISRISQQIGYYLHRASMRGGTLLSRELHPVAPLLDNLTSALNKVYQRKGVNISLDISPEISFVGEQNDFVEVMGNVLDNACKYCLEFVEISARQTDEHLYIVVEDDGPGIPLSKREVIFDRGQRVDTLRPGQGVGLAVAREITEQYEGKIVAGESMLGGARMEVIFGRQHSAPKDE

Variants of: B1
Assay: enrichment ratio after two sorts for PhoP signalling (ratio (wild type AVST 3.29)); higher = more functional
Details: with PhoP (E. coli)

| Variant | enrichment ratio |
| --- | --- |
| PKAC | ≤ 0.25 |
| PCQV | ≤ 0.25 |
| NPPF | ≤ 0.25 |
| WDMI | ≤ 0.25 |
| GDYK | ≤ 0.25 |
| YLIG | ≤ 0.25 |
| FEHW | ≤ 0.25 |
| EQAV | ≤ 0.25 |
| EQMS | ≤ 0.25 |
| VVIY | ≤ 0.25 |
| WFPN | ≤ 0.25 |
| GWWV | ≤ 0.25 |
| VAFM | 2.97 |
| QYDG | ≤ 0.25 |
| NPSM | ≤ 0.25 |
| HRDK | ≤ 0.25 |
| YSPG | ≤ 0.25 |
| GQFQ | ≤ 0.25 |
| SRSC | ≤ 0.25 |
| CFFK | ≤ 0.25 |
| HRWS | ≤ 0.25 |
| WIRD | ≤ 0.25 |
| GLCR | ≤ 0.25 |
| IATL | ≤ 0.25 |

| Variant | enrichment ratio |
| --- | --- |
| NVTL | ≤ 0.25 |
| YNKH | ≤ 0.25 |
| DQMS | ≤ 0.25 |
| ECKQ | ≤ 0.25 |
| NAKK | ≤ 0.25 |
| FEEN | ≤ 0.25 |
| LPIK | ≤ 0.25 |
| WDLL | ≤ 0.25 |
| TQRY | ≤ 0.25 |
| RHFS | ≤ 0.25 |
| DQKL | ≤ 0.25 |
| ICGP | ≤ 0.25 |
| NCFF | ≤ 0.25 |
| FNQC | ≤ 0.25 |
| MQHV | ≤ 0.25 |
| HDTC | ≤ 0.25 |
| WHEL | ≤ 0.25 |
| HYNQ | ≤ 0.25 |
| KRFG | ≤ 0.25 |
| ISLE | 2.04 |
| SIPE | ≤ 0.25 |
| LESS | ≤ 0.25 |
| RIYT | ≤ 0.25 |
| ADKV | ≤ 0.25 |

| Variant | enrichment ratio |
| --- | --- |
| FIRM | ≤ 0.25 |
| GMLD | ≤ 0.25 |
| YYDR | ≤ 0.25 |
| GYLW | ≤ 0.25 |
| IKSK | ≤ 0.25 |
| SHKP | ≤ 0.25 |
| VDIR | ≤ 0.25 |
| EHFK | ≤ 0.25 |
| MDIL | ≤ 0.25 |
| VEDM | ≤ 0.25 |
| AQWR | ≤ 0.25 |
| LDKY | ≤ 0.25 |
| INDI | ≤ 0.25 |
| MDQK | ≤ 0.25 |
| PLHP | ≤ 0.25 |
| IAKP | ≤ 0.25 |
| AEVT | 15.3 |
| LCMW | ≤ 0.25 |
| RDFL | ≤ 0.25 |
| HHCC | ≤ 0.25 |
| QIDY | ≤ 0.25 |
| GGSC | 9.93 |
| KHVS | ≤ 0.25 |
| CFNY | ≤ 0.25 |

| Variant | enrichment ratio |
| --- | --- |
| YWQT | ≤ 0.25 |
| GYFY | ≤ 0.25 |
| YYIM | ≤ 0.25 |
| FSAP | ≤ 0.25 |
| GTEF | ≤ 0.25 |
| AFAG | ≤ 0.25 |
| ADRD | ≤ 0.25 |
| HWVF | ≤ 0.25 |
| EYVI | ≤ 0.25 |
| SDWS | ≤ 0.25 |
| TDAC | 2.51 |
| RCGF | ≤ 0.25 |
| PCRE | ≤ 0.25 |
| YHYF | ≤ 0.25 |
| LPHG | ≤ 0.25 |
| LDLS | ≤ 0.25 |
| WGPE | ≤ 0.25 |
| FQML | 0.396 |
| CLFI | ≤ 0.25 |
| TRTR | ≤ 0.25 |
| PRNS | ≤ 0.25 |
| PSYT | ≤ 0.25 |
| EVMR | ≤ 0.25 |
| VAVT | ≤ 0.25 |

| Variant | enrichment ratio |
| --- | --- |
| YPFM | ≤ 0.25 |
| MTFK | ≤ 0.25 |
| NWWF | ≤ 0.25 |
| TMTM | 17.1 |
| WYDH | ≤ 0.25 |
| RKHK | ≤ 0.25 |
| DEHC | ≤ 0.25 |
| VLRV | ≤ 0.25 |
| HTDR | ≤ 0.25 |
| AHHL | ≤ 0.25 |
| ADPG | ≤ 0.25 |
| MFQW | ≤ 0.25 |
| PMLE | ≤ 0.25 |
| IFGQ | ≤ 0.25 |
| LIDK | ≤ 0.25 |
| FRTL | ≤ 0.25 |
| TSSR | ≤ 0.25 |
| PAFP | ≤ 0.25 |
| LDSA | 0.292 |
| RAIK | ≤ 0.25 |
| TEGT | 22.6 |
| DCYI | ≤ 0.25 |
| NECG | ≤ 0.25 |
| SYDH | ≤ 0.25 |

| Variant | enrichment ratio |
| --- | --- |
| GFNY | ≤ 0.25 |
| VIEI | ≤ 0.25 |
| QKLP | 1.15 |
| FQTV | ≤ 0.25 |
| DFPA | ≤ 0.25 |
| WKHH | ≤ 0.25 |
| HVDL | ≤ 0.25 |
| NLYN | ≤ 0.25 |
| DSWH | ≤ 0.25 |
| SPFP | ≤ 0.25 |
| NRVN | ≤ 0.25 |
| NKTK | ≤ 0.25 |
| KTIA | ≤ 0.25 |
| LMCI | ≤ 0.25 |
| ACQR | ≤ 0.25 |
| RNSI | ≤ 0.25 |
| DSCY | ≤ 0.25 |
| TPCQ | ≤ 0.25 |
| GDPK | ≤ 0.25 |
| KRCR | ≤ 0.25 |
| MYYI | ≤ 0.25 |
| FDEH | ≤ 0.25 |
| MVMT | ≤ 0.25 |
| YFFW | ≤ 0.25 |

| Variant | enrichment ratio |
| --- | --- |
| WYAH | ≤ 0.25 |
| PCHK | ≤ 0.25 |
| WDWN | ≤ 0.25 |
| FYLD | ≤ 0.25 |
| PPSS | ≤ 0.25 |
| VGRM | ≤ 0.25 |
| GRHI | ≤ 0.25 |
| VRIK | ≤ 0.25 |
| PRHH | ≤ 0.25 |
| EGFL | ≤ 0.25 |
| HDSE | ≤ 0.25 |
| NMKD | ≤ 0.25 |
| ELVY | 0.824 |
| QKYT | 1.91 |
| SHVI | 1.46 |
| GYPG | ≤ 0.25 |
| NPYM | ≤ 0.25 |
| GSHR | ≤ 0.25 |
| KKWY | ≤ 0.25 |
| DCVM | ≤ 0.25 |
| GVRC | ≤ 0.25 |
| GCQK | ≤ 0.25 |
| PPLN | ≤ 0.25 |
| PMDM | ≤ 0.25 |

| Variant | enrichment ratio |
| --- | --- |
| MYSM | ≤ 0.25 |
| KQMT | ≤ 0.25 |
| VQCD | ≤ 0.25 |
| PRIS | ≤ 0.25 |
| EVQW | ≤ 0.25 |
| YRTM | ≤ 0.25 |
| ARHY | ≤ 0.25 |
| GCHP | ≤ 0.25 |
| HESK | ≤ 0.25 |
| HEKT | ≤ 0.25 |
| QMSP | ≤ 0.25 |
| MRFI | 0.326 |
| RHML | ≤ 0.25 |
| RHFQ | ≤ 0.25 |
| INPI | ≤ 0.25 |
| SLTV | 10.4 |
| RPVG | ≤ 0.25 |
| GHRS | ≤ 0.25 |
| TYWE | ≤ 0.25 |
| PMNH | ≤ 0.25 |
| APYV | ≤ 0.25 |
| QQPW | ≤ 0.25 |
| DQNV | ≤ 0.25 |
| VKWY | ≤ 0.25 |

| Variant | enrichment ratio |
| --- | --- |
| FSQY | ≤ 0.25 |
| MKSV | ≤ 0.25 |
| INSP | ≤ 0.25 |
| AWKS | ≤ 0.25 |
| WNKG | ≤ 0.25 |
| PVFR | ≤ 0.25 |
| VRLN | ≤ 0.25 |
| FEKA | ≤ 0.25 |
| ELWF | ≤ 0.25 |
| IIMA | ≤ 0.25 |
| LREM | ≤ 0.25 |
| YECW | 0.272 |
| FMQW | ≤ 0.25 |
| SFTN | ≤ 0.25 |
| YTVG | ≤ 0.25 |
| QLFV | ≤ 0.25 |
| WEHP | ≤ 0.25 |
| ETSC | ≤ 0.25 |
| SNCG | 13.5 |
| MWSC | ≤ 0.25 |
| LPEV | ≤ 0.25 |
| LAEP | ≤ 0.25 |
| SEQE | ≤ 0.25 |
| TLKG | ≤ 0.25 |

| Variant | enrichment ratio |
| --- | --- |
| HTER | ≤ 0.25 |
| RIWC | ≤ 0.25 |
| VMWV | ≤ 0.25 |
| RWSA | ≤ 0.25 |
| GKCS | 0.777 |
| LCAG | ≤ 0.25 |
| WHIA | ≤ 0.25 |
| IAVY | ≤ 0.25 |
| WLWM | ≤ 0.25 |
| IPFM | ≤ 0.25 |
| GFTY | ≤ 0.25 |
| MPMS | ≤ 0.25 |
| FDTA | ≤ 0.25 |
| ITFD | ≤ 0.25 |
| TTTI | 22.1 |
| PPPP | ≤ 0.25 |
| GYIK | ≤ 0.25 |
| APNR | ≤ 0.25 |
| DEMM | ≤ 0.25 |
| MEWI | 24 |
| GDRW | ≤ 0.25 |
| GCYP | ≤ 0.25 |
| WQFY | ≤ 0.25 |
| SFGA | ≤ 0.25 |

| Variant | enrichment ratio |
| --- | --- |
| ITLQ | 5.07 |
| TWSV | ≤ 0.25 |
| FAFP | ≤ 0.25 |
| APDF | ≤ 0.25 |
| MHHK | ≤ 0.25 |
| HLDI | ≤ 0.25 |
| DAAT | ≤ 0.25 |
| IMTG | ≤ 0.25 |
| FVGI | ≤ 0.25 |
| MEAR | ≤ 0.25 |
| ATSG | 5.01 |
| CIQV | ≤ 0.25 |
| NEWS | ≤ 0.25 |
| YYKQ | ≤ 0.25 |
| GCNS | ≤ 0.25 |
| TCAF | 8.3 |
| YPGQ | ≤ 0.25 |
| HNGD | ≤ 0.25 |
| YKHS | ≤ 0.25 |
| GHIP | ≤ 0.25 |
| GITC | 8.58 |
| WICY | ≤ 0.25 |
| LGNQ | ≤ 0.25 |
| ICCV | ≤ 0.25 |

| Variant | enrichment ratio |
| --- | --- |
| TMRG | ≤ 0.25 |
| INDA | ≤ 0.25 |
| YGRR | ≤ 0.25 |
| KIKM | ≤ 0.25 |
| EPYV | ≤ 0.25 |
| MTND | ≤ 0.25 |
| LTCK | ≤ 0.25 |
| HQWC | ≤ 0.25 |
| DDWK | ≤ 0.25 |
| VEKA | ≤ 0.25 |
| PLPM | 0.586 |
| KMCP | ≤ 0.25 |
| AWPT | ≤ 0.25 |
| WRID | ≤ 0.25 |
| QAFM | 2.31 |
| IIVC | ≤ 0.25 |
| GLIQ | ≤ 0.25 |
| GDWV | ≤ 0.25 |
| KTPH | ≤ 0.25 |
| SGLL | 19.8 |
| SGNH | ≤ 0.25 |
| GYQD | ≤ 0.25 |
| KICK | ≤ 0.25 |
| NVFI | ≤ 0.25 |

| Variant | enrichment ratio |
| --- | --- |
| HYYD | ≤ 0.25 |
| RFTC | ≤ 0.25 |
| TEHK | ≤ 0.25 |
| WRSW | ≤ 0.25 |
| MTSW | ≤ 0.25 |
| NYDP | ≤ 0.25 |
| STQK | ≤ 0.25 |
| AEPK | ≤ 0.25 |
| GGAV | 23.8 |
| LWWN | ≤ 0.25 |
| TVRH | ≤ 0.25 |
| LCKN | ≤ 0.25 |
| LSKL | ≤ 0.25 |
| WRMY | ≤ 0.25 |
| SQEQ | ≤ 0.25 |
| NQYT | ≤ 0.25 |
| DVNY | ≤ 0.25 |
| SARA | ≤ 0.25 |
